The list shows a part of the results.
These sequences were tested on T1, Caupolican (Caup) homeodomain DNA-binding domain (assay: PBM E-score (8-mer, recovered from the published 9-mer minima) (E-score (dimensionless, -0.5 to 0.5)); Drosophila protein; higher = stronger relative binding preference, active = 0.31 or more).
T1 sequence: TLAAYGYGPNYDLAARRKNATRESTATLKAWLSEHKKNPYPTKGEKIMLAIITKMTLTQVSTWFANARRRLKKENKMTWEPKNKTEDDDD
Description: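 Protein binding microarray (PBM): in vitro transcribed/translated Caupolican (Caup) homeodomain DNA-binding domain (residues 214-303) applied at 100 nM to a universal 8-mer PBM array (Agilent AMADID 015681). The 8-mer enrichment score (E-score, range -0.5 to 0.5) was computed, and each 9-mer score is the minimum E-score of its two constituent 8-mers. The E-score is the same for a 9-mer and its reverse complement; 0.31 is the stated binding threshold.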

| Sequence | PBM E-score |
| --- | --- |
| TACAGCAA | inactive: 0.157 |
| AACCCTTA | ≥ 0.0757 |
| AACTGAAC | inactive: 0.0211 |
| CGGGTTCC | inactive: -0.19 |
| AGGAAGGA | inactive: -0.0149 |
| GCTAGGCA | inactive: -0.166 |
| ACACCTTC | inactive: 0.079 |
| AGGACGGC | inactive: -0.14 |
| AGCCGCGG | inactive: -0.249 |
| ATTCGACA | inactive: 0.24 |
| GGGGGAGA | inactive: -0.262 |
| ACATGCCA | active: 0.336 |
| CCGCTCTC | inactive: -0.261 |
| CTCGTCAG | inactive: 0.037 |
| ATAATGAA | inactive: 0.136 |
| CAGGCACC | inactive: -0.0964 |
| AAGAGTCC | inactive: -0.0907 |
| ATTTAGGA | inactive: 0.069 |
| GCCTCTGA | inactive: -0.2 |
| AGGACTAC | inactive: 0.0221 |
| AAATTAGG | inactive: 0.0324 |
| ATCCCTGC | inactive: -0.137 |
| AATAATTC | inactive: 0.204 |
| AGGATTTG | inactive: 0.126 |
| TGACGTAA | inactive: 0.0998 |

| Sequence | PBM E-score |
| --- | --- |
| CGCCTTGC | inactive: -0.0806 |
| CGCTGTAG | inactive: 0.0698 |
| AACTCAGG | inactive: -0.129 |
| ATAGCAGG | ≥ 0.0448 |
| CGTCTTAG | inactive: -0.133 |
| GGGCCGTA | inactive: -0.122 |
| AGGAGATA | inactive: 0.00547 |
| GACCAGAC | inactive: -0.029 |
| CGGTCCCC | inactive: -0.298 |
| ACGCGGAG | inactive: -0.171 |
| ATTCGTCG | inactive: 0.0411 |
| ATTACAAT | inactive: 0.298 |
| CGCATGAG | inactive: -0.204 |
| AACGTATA | inactive: 0.0814 |
| AAACTACG | inactive: 0.0609 |
| AACTAAAA | inactive: 0.0647 |
| CACTCCCA | inactive: 0.0198 |
| CATAGATC | inactive: 0.116 |
| CGGAAAAC | inactive: 0.0304 |
| GCTGATAA | inactive: 0.0283 |
| GGACTACA | inactive: 0.161 |
| CCCCTCGC | inactive: -0.261 |
| AATGCAGA | inactive: 0.0234 |
| CGTTCGAA | inactive: 0.0359 |
| CACGATGC | inactive: -0.0178 |

| Sequence | PBM E-score |
| --- | --- |
| AGTTTAGG | inactive: -0.00797 |
| AACCATCT | inactive: -0.00295 |
| TAAAGCGA | inactive: -0.0517 |
| ATGGGTAC | inactive: 0.138 |
| ACAAAAGA | inactive: 0.131 |
| CTTCGTCC | inactive: -0.193 |
| GAGCGGTA | inactive: -0.0235 |
| CGTCCGTC | inactive: -0.158 |
| AGTCCGCA | inactive: -0.112 |
| AACGTCCG | inactive: -0.0455 |
| GATCACTA | inactive: 0.00016 |
| CGATAATA | inactive: 0.137 |
| TAAATTTA | inactive: 0.0912 |
| TCTTGTCA | active: 0.329 |
| GTGATGCA | inactive: 0.155 |
| GCTACCTA | inactive: 0.0125 |
| ACTACGAA | inactive: 0.108 |
| GTTCCCTA | inactive: 0.057 |
| CCTTCGCA | inactive: -0.12 |
| TACGCGTA | inactive: 0.0722 |
| GTGGAGAA | inactive: -0.136 |
| CCTGGAAA | inactive: -0.106 |
| CGGGTTGA | inactive: -0.142 |
| AAACGGCC | inactive: -0.153 |
| CACCAGCA | inactive: -0.0599 |

| Sequence | PBM E-score |
| --- | --- |
| CTCAGCAC | inactive: 0.0305 |
| GATCACCA | inactive: 0.00065 |
| ACGCAACA | inactive: 0.215 |
| ATCAAGGC | inactive: -0.0234 |
| CCGGGGTC | inactive: -0.192 |
| ACATCCGT | inactive: 0.187 |
| ATGGCTGG | inactive: -0.0905 |
| CCGTAGGA | inactive: -0.155 |
| CAGCGCTG | inactive: 0.0134 |
| AAACAGGA | ≥ 0.196 |
| GCCAACGC | inactive: -0.166 |
| GATCAATC | inactive: -0.0083 |
| CTAACCAG | inactive: 0.121 |
| CAAATATG | inactive: 0.0918 |
| AAGACGAA | inactive: 0.0568 |
| TAATGCAA | inactive: 0.0818 |
| ATCTCTCC | inactive: -0.0495 |
| CTACTAGA | inactive: 0.0626 |
| CCCTTTAG | inactive: -0.095 |
| CCGACAGC | inactive: -0.0901 |
| AAATAAAC | inactive: 0.193 |
| ATACGAAG | inactive: 0.0288 |
| CGGGTTGC | inactive: -0.109 |
| GACCGCCC | inactive: -0.287 |
| CTACCGTA | inactive: 0.0707 |

| Sequence | PBM E-score |
| --- | --- |
| ACCGTTTC | inactive: -0.068 |
| AAGTCTGT | inactive: 0.139 |
| CGTAAACG | inactive: -0.0383 |
| CTTGGGAC | inactive: -0.147 |
| ATAGCACA | inactive: 0.0848 |
| ACGGTTAC | inactive: 0.0585 |
| AGGTGTAT | inactive: 0.243 |
| ATGATATA | inactive: 0.174 |
| CTACTCCC | inactive: -0.056 |
| ATTTAGTG | inactive: 0.094 |
| CCTTAACA | inactive: 0.147 |
| AGGGGATA | inactive: 0.00853 |
| CCGCAATC | inactive: -0.119 |
| AGAGTCTC | inactive: -0.13 |
| CGATGAAG | ≥ 0.0686 |
| ACCGATCT | inactive: -0.0517 |
| ATCTTCCG | inactive: -0.0309 |
| AAGCATCG | inactive: -0.00688 |
| AGACGAAT | inactive: 0.0391 |
| ACTGTTGG | inactive: -0.00277 |
| GCCCCCGA | inactive: -0.297 |
| ATTTCTTA | inactive: 0.1 |
| TAATAGCA | inactive: 0.0739 |
| ATACAAAT | inactive: 0.272 |
| CTGCAGCC | inactive: -0.196 |

| Sequence | PBM E-score |
| --- | --- |
| CGACCACG | inactive: -0.0332 |
| GAGAATGA | inactive: 0.0682 |
| ACGGCTTC | inactive: -0.124 |
| GGCCTCCA | inactive: -0.206 |
| GTTGATAA | inactive: 0.167 |
| AAGGTGCC | inactive: -0.0732 |
| ATCGCCGC | inactive: -0.14 |
| GTCCGCGA | inactive: -0.104 |
| AGGTTTCG | inactive: -0.0441 |
| ATCAGGAC | inactive: 0.0309 |
| CTGACAAC | inactive: 0.281 |
| AGTATGGC | inactive: -0.0798 |
| GGAGCACC | inactive: -0.132 |
| ACTTGCCG | inactive: 0.0385 |
| ATCGAGTG | inactive: 0.0358 |
| AAGCTGAA | inactive: -0.026 |
| GTGTGACA | inactive: 0.29 |
| CGGATCGC | inactive: -0.135 |
| GGACGGCA | inactive: -0.103 |
| ATAGTAGC | inactive: 0.105 |
| ATTTCTCC | inactive: -0.0592 |
| AACTTTCT | inactive: 0.0685 |
| CGTGGCCA | inactive: -0.145 |
| GGAAGGCA | inactive: -0.216 |
| CCATTTTA | inactive: 0.0318 |

| Sequence | PBM E-score |
| --- | --- |
| AATGCGCC | inactive: -0.0685 |
| ACATCAGA | inactive: 0.19 |
| AGTGATTC | inactive: 0.022 |
| ACGGTAAT | inactive: 0.0153 |
| ATCCATAA | inactive: 0.00943 |
| GATGCATC | inactive: 0.142 |
| AGCATTCA | inactive: -0.00786 |
| AAAGGCCC | inactive: -0.159 |
| CAAGGTGC | inactive: -0.0393 |
| ACTAATTC | inactive: 0.23 |
| GACTAATC | inactive: 0.0756 |
| GTCCCAAC | inactive: 0.0237 |
| GTAGAGTA | inactive: 0.152 |
| GGTCACAA | inactive: -0.033 |
| ATCTTGGG | inactive: 0.0158 |
| CCCCTGGC | inactive: -0.288 |
| CGAGATGA | inactive: -0.0624 |
| CAGTGAAG | inactive: -0.0944 |
| AACCTGGC | inactive: -0.115 |
| GAGAGGGC | inactive: -0.268 |
| ACCTCTGA | inactive: -0.12 |
| AGTCTAAC | inactive: -0.0138 |
| AAACGCCG | inactive: -0.103 |
| AACCATGT | active: 0.347 |
| GCAACACA | inactive: 0.144 |

| Sequence | PBM E-score |
| --- | --- |
| ACCGAATG | inactive: 0.0492 |
| ATTCACCG | inactive: -0.0488 |
| GTATCGAC | inactive: 0.0647 |
| CATTTAAC | inactive: 0.148 |
| CCCAAGGA | inactive: -0.154 |
| CTCGCCAC | inactive: -0.114 |
| ATCACCAT | ≥ 0.111 |
| AACAATAA | inactive: 0.195 |
| CCGTCAAG | inactive: -0.157 |
| CAACGGGG | inactive: -0.0741 |
| AATCTGTA | inactive: 0.21 |
| ATCACATC | inactive: 0.172 |
| AGCATAAG | inactive: -0.0406 |
| ACTTGATC | inactive: 0.0729 |
| GGACGTTA | inactive: -0.0181 |
| GTCCTACA | inactive: 0.146 |
| GCGTTCCC | inactive: -0.201 |
| AGATCTGC | inactive: 0.0742 |
| AGACTGCT | inactive: -0.0272 |
| AGTAATCG | inactive: 0.0504 |
| GTTGGTCA | inactive: 0.0524 |
| AACTAGCA | inactive: 0.0338 |
| ACATCCTG | inactive: 0.299 |
| AAACATCT | inactive: 0.215 |
| GGTATCCA | inactive: -0.0143 |

| Sequence | PBM E-score |
| --- | --- |
| CGACCGGC | inactive: -0.141 |
| CGGCAAAG | inactive: -0.0935 |
| GGGTACAA | inactive: 0.242 |
| ACGTTTCA | inactive: 0.0345 |
| AGCATTGC | inactive: -0.0674 |
| GCGAACTA | inactive: -0.0109 |
| ACCATCAC | ≥ 0.0931 |
| AACTCTGT | inactive: 0.0656 |
| CGCCTACC | inactive: -0.139 |
| GACTACCC | inactive: -0.0672 |
| AATAGGCG | inactive: -0.0729 |
| AAAATCCA | inactive: 0.107 |
| AACGGAGG | inactive: -0.168 |
| AGACGTGC | inactive: -0.0698 |
| AGCCTGTA | inactive: 0.14 |
| GCGTAAGA | inactive: -0.0412 |
| TTAACGAA | inactive: 0.0384 |
| AGGCACGC | inactive: -0.243 |
| GAACTTAA | inactive: 0.00753 |
| ATCATTGA | inactive: 0.153 |
| CTTCCGCC | inactive: -0.236 |
| GTATGACA | active: 0.312 |
| ATGAGAGC | inactive: -0.0905 |
